Experimental findings from patent US20250002557A1 (SUZHOU LIGHT FERRY BIOMED, published 2025) are described below.

By EC50 is commonly meant the concentration needed to bring the measured effect to its halfway point. The Kd is the constant that tells how readily two partners part at equilibrium. Broadly, the koff is a measure of how fast the partners let go of each other. As usually defined, the kon is the rate constant with which the complex forms.

“And” between values parts separate entries of the source, which are not always exact repeats. Identical values can stand only once.

The target of assay [1] is T1, VEGF-A165 (UniProt P15692-4 27-191).
T1 construct: Bought reagent
T1 sequence (looked up): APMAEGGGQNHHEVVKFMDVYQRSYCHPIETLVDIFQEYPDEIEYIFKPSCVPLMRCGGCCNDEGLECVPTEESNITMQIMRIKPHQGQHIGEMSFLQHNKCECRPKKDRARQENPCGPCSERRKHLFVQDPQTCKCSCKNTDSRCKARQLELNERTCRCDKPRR
Briefly: blocking ELISA: His-VEGF-A165 premixed with sample, binding to coated VEGFR2-Fc read with anti-His-HRP. (In general: In an ELISA, binding on a coated surface is turned into a signal by an enzyme label.)

Assay [2] has as its target T2, VEGF-D (UniProt O43915 89-205, limits assumed).
T2 construct: Bought reagent
T2 sequence (looked up): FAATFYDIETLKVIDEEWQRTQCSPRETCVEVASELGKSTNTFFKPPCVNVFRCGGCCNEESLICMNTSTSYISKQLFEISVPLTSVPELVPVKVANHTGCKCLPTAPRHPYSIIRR
Briefly: blocking ELISA: His-VEGF-D premixed with sample, binding to coated VEGFR2-Fc read with anti-His-HRP. As for the experimental part: (§1) During the blocking period, each recombinant receptor molecule was serially diluted from high to low concentrations, mixed evenly with 100 ng/well of VEGF-C or VEGF-D (both labeled with His-tag), allowing for incubation at room temperature for 30 minutes. […] The plates were washed with PBST, then anti-polyhistidine secondary antibody conjugated with horseradish peroxidase was added to allow for incubation and binding at room temperature for 1 hour. Then the plates were washed with PBST, TMB was added for color development, terminated with 5% hydrochloric acid solution, and finally, the OD values at 450 nm were read using a microplate reader.

Assay [3] has as its target T1, VEGF-A165. Briefly: blocking ELISA: His-VEGF-A165 premixed with sample, binding to coated VEGFR1-Fc read with anti-His-HRP.
The target in assay [4] is T3, PIGF (UniProt P49763-2 19-149, limits assumed).
T3 construct: Bought reagent; also called PLGF; placental growth factor
T3 sequence (looked up): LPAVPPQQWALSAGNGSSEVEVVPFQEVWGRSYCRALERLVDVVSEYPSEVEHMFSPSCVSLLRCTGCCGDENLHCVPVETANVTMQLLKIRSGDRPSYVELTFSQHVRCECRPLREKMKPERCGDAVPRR
In words: ELISA, PlGF coated, anti-human Fc-HRP, OD450.

Assay [5] addresses T4, VEGF-B (UniProt P49765-2 22-188, limits assumed).
T4 construct: Bought reagent
T4 sequence (looked up): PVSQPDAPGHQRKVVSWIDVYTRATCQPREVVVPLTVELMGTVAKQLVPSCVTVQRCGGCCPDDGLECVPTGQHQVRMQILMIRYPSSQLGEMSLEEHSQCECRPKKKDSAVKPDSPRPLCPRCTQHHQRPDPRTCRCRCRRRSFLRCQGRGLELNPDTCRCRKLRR
In words: ELISA, VEGF-B coated, anti-human Fc-HRP, OD450.

In assay [6] the target is T5, VEGF-C (UniProt P49767 112-227, limits assumed).
T5 construct: Bought reagent
T5 sequence (looked up): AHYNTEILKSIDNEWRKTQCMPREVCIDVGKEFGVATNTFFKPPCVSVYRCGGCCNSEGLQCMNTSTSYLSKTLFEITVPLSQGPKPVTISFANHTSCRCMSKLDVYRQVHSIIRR
Briefly: blocking ELISA: His-VEGF-C premixed with sample, binding to coated VEGFR2-Fc read with anti-His-HRP. The procedure:
as §1

Assay [7] has as its target T5, VEGF-C. The description is as above. The procedure: as §1
The source holds these as a separate data set.

The target in assay [8] is T2, VEGF-D. Briefly: blocking ELISA: His-VEGF-D premixed with sample, binding to coated VEGFR2-Fc read with anti-His-HRP. The procedure: as §1
The source holds these as a separate data set.

The target in assay [9] is T1, VEGF-A165. Briefly: blocking ELISA: His-VEGF-A165 premixed with sample, binding to coated VEGFR2-Fc read with anti-His-HRP. The source holds these as a separate data set.
Assay [10] deals with T5, VEGF-C. In words: ELISA binding to VEGF-C, absorbance 450 nm.
For assay [11], the target named is T5, VEGF-C. Briefly: ELISA, coated VEGF-C, anti-human Fc-HRP.
For assay [12], the target named is T2, VEGF-D. Briefly: blocking ELISA, VEGF-D-His to coated VEGFR3-Fc. As for the experimental part: (§2) During the blocking period, each recombinant receptor molecule was serially diluted from high to low concentrations, mixed evenly with 10 ng/well of VEGF-C or 500 ng/well of VEGF-D (both labeled with His-tag), allowing for incubation at room temperature for 30 minutes. […] The plates were washed with PBST, then TMB was added for color development, terminated with 5% hydrochloric acid solution, and finally, the OD values at 450 nm were read using a microplate reader.

Assay [13] deals with T5, VEGF-C. Briefly: blocking ELISA, VEGF-C to VEGFR2 (Example 13).
The target in assay [14] is T4, VEGF-B. In words: ELISA, VEGF-B coated, anti-human Fc-HRP, OD450. This is another data set of the same source.
For assay [15], the target named is T2, VEGF-D. In words: ELISA binding to VEGF-D, OD450.
The target in assay [16] is T2, VEGF-D. Briefly: blocking ELISA, VEGF-D to VEGFR3 (Example 13).
Assay [17] has as its target T5, VEGF-C. In words: blocking ELISA, VEGF-C-His to coated VEGFR2-Fc. As for the experimental part: as §1
The target in assay [18] is T2, VEGF-D. Briefly: blocking ELISA, VEGF-D-His to coated VEGFR2-Fc. The procedure: as §1
Assay [19] addresses T3, PIGF. In words: ELISA, PlGF coated, anti-human Fc-HRP, OD450. This is another data set of the same source.
Assay [20] has as its target T2, VEGF-D. Briefly: blocking ELISA, VEGF-D to VEGFR2 (Example 13).
For assay [21], the target named is T2, VEGF-D. Briefly: blocking ELISA, VEGF-D-His to coated VEGFR2-Fc; row head prints uM, ng/ml row implies nM. As for the experimental part:
as §1

Assay [22] addresses T5, VEGF-C. In words: blocking ELISA, VEGF-C-His to coated VEGFR3-Fc. The procedure: as §2
Assay [23] addresses T5, VEGF-C. Briefly: blocking ELISA, VEGF-C-His to coated VEGFR3-Fc; row head prints uM, ng/ml row implies nM. The procedure: as §2
Assay [24] addresses T5, VEGF-C. Briefly: SPR Biacore T200, trap captured on Protein A chip, antigen in flow; row shifted, N/A cell spans VEGF-A.
The target of assay [25] is T2, VEGF-D. Described as above.

B1: LFV-S Recombinant receptor molecule (Fc fusion)
chain: YVQDYRSPFIASVSDQHGVVYITENKNKTVVIPCLGSISNLNVSLCARYPEKRFVPDGNRISWDSKKGFTIPSYMISYAGMVFCEAKINDESYQSIMYIVVVVGYRIYDVVLSPSHGIELSVGEKLVLNCTARTELNVGIDFNWEYPSSKHQHKKLVNRDLKTQSGSEMKKFLSTLTIDGVTRSDQGLYTCAASSGLMTKKNSTFVRVHEKGGGGSGRPFVEMYSEIPEIIHMTEGRELVIPCRVTSPNITVTLKKFPLDTLIPDGKRIIWDSRKGFIISNATYKEIGLLTCEATVNGHLYKTNYLTHRQTNTIIGPG[here human IgG1 Fc without letters]
Take B1: the EC50 in assay [1] came out at 3.02 nM; in assay [2] it was 5.38 nM; in [3], 6.59 nM; in assay [4], 0.436 nM; in [5], 1.8 nM; in assay [6] it was 14.4 nM.

B2: LFV-P Recombinant receptor molecule (Fc fusion)
chain: YVQDYRSPFIASVSDQHGVVYITENKNKTVVIPCLGSISNLNVSLCARYPEKRFVPDGNRISWDSKKGFTIPSYMISYAGMVFCEAKINDESYQSIMYIVVVVGYRIYDVVLSPSHGIELSVGEKLVLQCTARTELNVGIDFNWEYPSSKHQHKKLVNRDLKTQSGSEMKKFLSTLTIDGVTRSDQGLYTCAASSGLMTKKNSTFVRVHEKGPG[here human IgG1 Fc without letters]
In the case of B2, the EC50 in [7] worked out at 5.66 nM; in assay [8], 1.09 nM; in assay [1], 3.1 nM; in assay [2], 4.12 nM; in [3], 27.2 nM; in [6] it was 11.4 nM. This molecule gave an EC50 in assay [9] of 2.26 nM.

B3: OPT (Fc fusion)
chain: YSMTPPTLNITEESHVIDTGDSLSISCRGQHPLEWAWPGAQEAPATGDKDSEDTGVVRDCEGTDARPYCKVLLLHEVHAQDTGSYVCYYKYIKARIEGTTAASSYVFVRDFEQPFINKPDTLLVNRKDAMWVPCLVSIPGLNVTLRSQSSVLWPDGQEVVWDDRRGMLVSTPLLHDALYLQCETTWGDQDFLSNPFLVHITGNELYDIQLLPRKSLELLVGEKLVLNCTVWAEFNSGVTFDWDYPGKQAERGKWVPERRSQQTHTELSSILTIHNVSQHDLGSYVCKANNGIQRFRESTEVIVHE[here human IgG1 Fc without letters]
notes: also called control article OPT
For B3, the EC50 was 0.544 nM in [10]; 0.45 nM and 0.0546 µg/mL in [11]; 13.7 nM in [7]; 0.688 µg/mL and 5.73 nM in [12]; 32.1 nM in [13]; 7.39 nM in assay [8]. The EC50 was 387 nM in assay [15]; 25.2 nM in assay [16]; 3.57 µg/mL and 29.7 nM in assay [17]; 0.241 µg/mL in assay [18]; 24.6 nM in assay [20]; 13.7 nM in assay [2]. Besides, the EC50 came out at 2010 nM in [21], 0.3 µg/mL in assay [22], 14.5 nM in assay [6] and 2500 nM in assay [23]. The binding result in assay [14] and in assay [19] was “no binding (tested: log10 2 (100 nM))” in each case. Further, the values for the equilibrium dissociation constant (Kd) in [24] and in [25] were 0.0507 nM and 17.9 nM, respectively. Moreover, the koff stood at 0.000167 s⁻¹ in assay [24] and 0.000311 s⁻¹ in assay [25]. The figures for the kon in [24] and in assay [25] were 3.29e+06 M⁻¹ s⁻¹ and 17400 M⁻¹ s⁻¹, respectively.
